Source: PubChem BioAssay AID485344 (National Center for Advancing Translational Sciences (NCATS), 2010)
About 6,900 (2%) of roughly 340,000 compounds were called active. Rule as the data show it: active = inhibition above about 30%; inactive = below that, where a call was filed. The list shows a part of the results, in another mix than the full data. The source gives no active or inactive call for entries shown without one.

target: D(2) dopamine receptor (Homo sapiens) (UniProt P14416); assay: HTS Assay for Allosteric Antagonists of the Human D2 Dopamine Receptor: Primary Screen for Antagonists; details: HEK293 TREx D2 cells, calcium flux, dopamine EC80; at 10 µM; stronger effect = higher value; also: 0% is about no effect
How it was run: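 Overnight-induced (tetracycline, 30 C) HEK293 T-REx cells carrying force-coupled D2 receive a no-wash calcium dye, then compound, then EC80 dopamine at 180 s; signals are read kinetically throughout.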

Sequence of UniProt P14416 (P14416 whole entry, looked up): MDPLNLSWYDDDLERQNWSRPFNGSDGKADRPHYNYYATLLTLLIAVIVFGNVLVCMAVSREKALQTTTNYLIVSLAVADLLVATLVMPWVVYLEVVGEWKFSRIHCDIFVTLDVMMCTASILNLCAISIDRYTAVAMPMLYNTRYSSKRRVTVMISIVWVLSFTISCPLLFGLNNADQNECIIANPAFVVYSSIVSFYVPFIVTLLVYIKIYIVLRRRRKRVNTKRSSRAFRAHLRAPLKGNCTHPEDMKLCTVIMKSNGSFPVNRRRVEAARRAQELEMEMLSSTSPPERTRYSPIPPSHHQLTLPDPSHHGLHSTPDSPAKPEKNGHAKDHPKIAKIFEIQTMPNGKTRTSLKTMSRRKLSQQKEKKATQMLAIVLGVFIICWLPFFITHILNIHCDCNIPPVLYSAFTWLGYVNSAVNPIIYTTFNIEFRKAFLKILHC

Compound | inhibition
COc1ccc(CNC(=O)c2cc3cc(C)ccc3n2C)cc1 | 3.51%
Cc1ccc(SC[C@H](c2ccccc2)N2CCN(C)CCC2=O)cc1 | active: 37.6%
O=C(NCc1cccs1)c1ccc2c(c1)N(Cc1ccccc1Cl)C(=O)c1ccccc1S2 | 0.361%
COc1ccc(-c2cc3nc(C)c(CCC(=O)N4CCN(c5cccc(Cl)c5)CC4)c(C)n3n2)c(OC)c1 | 1.46%
Cc1ccccc1-c1ncnn1-c1sc2c(c1C#N)CCCCC2 | 9.47%
COc1ccc(-c2cc(C(=O)OCC(=O)c3ccc(C)cc3)c3cccc(Cl)c3n2)cc1 | -6.48%
CC(C)Cn1c(=O)c2ccccc2n2c(CCC(=O)NCc3ccccc3Cl)nnc12 | -9.99%
COc1ccc(NC(=O)Cn2c(=O)n(-c3ccccc3)c(=O)c3c4c(sc32)CCCC4)cc1 | 1.73%
Cc1cc(C)cc(Nc2cc(-c3ccccc3)nc(C)n2)c1 | 2.33%
CCCCN(C)c1nnc(NC(=O)Nc2cccc(C(C)=O)c2)s1 | 9.55%
Cc1ccc(NC2=CC(c3ccccc3F)N(c3ccc(C)cc3)C2=O)cc1 (configuration not stated) | -7.83%
C=CCOC(=O)C1=C(C)OC(N)=C(C#N)C1c1c(C)nn(-c2ccccc2)c1Cl (configuration not stated) | active: 44%
O=S(=O)(c1ccccc1)c1nnn2c1nc(NCc1cccs1)c1sccc12 | 7.58%
Cc1ccc2oc(C(=O)Nc3c(C(=O)Nc4ccccc4)oc4ccccc34)cc(=O)c2c1 | 0.213%
CCCOc1ccc(N2CC(C(=O)Nc3cccc(Cl)c3Cl)CC2=O)cc1 (configuration not stated) | 8.07%
CCOc1ccc(CCNC(=O)CN2C(=O)COc3ccc(S(=O)(=O)N4CCC(C)CC4)cc32)cc1 | -11.3%
Cc1ccc(NC(=O)CCn2cccn2)cc1Cl | 3.62%
Cc1nn(CC(=O)NCCc2ccc(Cl)cc2)c(=O)c2cc3cc(F)ccc3n12 | 10.5%
Cc1ccc(-n2nc3c(N4CCC(C(=O)N5CCCCC5)CC4)nnc(C)c3c2C)cc1 | -4.97%
Cc1ccc(NC(=O)CCc2nnc3n(CC(C)C)c(=O)c4ccccc4n23)cc1C | 8.73%
CCCc1cc(N2CCN(c3cc(Cl)ccc3C)CC2)n2cnnc2n1 | 9.13%
COc1ccc(CNC(=O)Cn2nc(C)c3nn(-c4ccc(Cl)cc4)c(C)c3c2=O)cc1 | 1.91%
COc1ccc(-c2cc(NCc3ccc(F)cc3)n3cnnc3n2)cc1 | 0.179%
O=C(Nc1cccc(Cl)c1)Nc1c[nH]c(=O)[nH]c1=O | active: 34.3%

Compound | inhibition
Cc1cc(OCC(=O)NCC2(N3CCN(C)CC3)CCCCC2)cc(C)c1Cl | -1.2%
COc1cc(C(=O)NC(c2ccccc2Cl)c2cc(Cl)c3cccnc3c2O)cc(OC)c1OC (configuration not stated) | 3.95%
CC(=O)Nc1ccc(NC(=O)c2cc(CN3CCCC3)on2)cc1 | 4.18%
COc1ccc(NC(=O)CSc2oc(-c3ccco3)nc2S(=O)(=O)c2ccc(C)cc2)c(OC)c1 | 5.8%
CCOc1ccc(NC(=O)Cn2c(=O)n(CC3CCC(C(=O)NCCc4ccccc4)CC3)c(=O)c3ccccc32)cc1 (configuration not stated) | 9.15%
COc1ccccc1C(=O)Nc1cccc(C(=O)OCc2cc(=O)n3c4c(sc3n2)CCCC4)c1 | -0.785%
CN(C)S(=O)(=O)c1ccc2c(c1)N(CC(=O)Nc1cccc(C(F)(F)F)c1)C(=O)CS2 | 9.55%
Cc1onc(-c2ccccc2Cl)c1C(=O)Oc1ccccc1F | 7.26%
CC(C)(C)OC(=O)N1CCC(N2CCN(Cc3ccccc3)C(=O)C2=O)CC1 | 6.38%
CCOc1ccc(NC(=O)C(CC(C)C)N2Cc3ccccc3C2=O)cc1 (configuration not stated) | -2.94%
CCOC(=O)c1ccccc1NC(=O)NCc1c(-n2cccc2)sc2c1CCCC2 | -2.86%
CCn1ccc2c(OCC(=O)Nc3ccc(C)c(Cl)c3)cccc2c1=O | -6.81%
COc1cccc(N2CCN(C(=O)CCSCc3ccccc3F)CC2)c1 | 26.1%
CCN(CC)c1cc(C)c2cc(NC(=O)c3cc(OC)cc(OC)c3)ccc2n1 | 0.193%
Cc1cccc(C(=O)Nc2c(C(=O)N3CCN(c4ccc(F)cc4)CC3)oc3ccccc23)c1 | 4.96%
CCOC(=O)C1CCN(S(=O)(=O)c2cc3c4c(c2)C(C)C(=O)N4CCC3)CC1 (configuration not stated) | -3.67%
Cc1cc(=O)n(Cc2c(F)cccc2Cl)c2c1c(C)nn2-c1cccc(F)c1 | 6.11%
O=C(Cc1ccc(Cl)cc1)NCC(c1cccs1)S(=O)(=O)c1ccccc1 (configuration not stated) | 15%
Cc1ccc(S(=O)(=O)N(CC(=O)Nc2ccc(F)cc2F)Cc2ccc(F)cc2)cc1 | -5.74%
COc1ccc(CNC(=O)CC2N=C3c4ccccc4N=C(SCC(=O)Nc4ccc(C(C)C)cc4)N3C2=O)cc1 (configuration not stated) | -7.11%
COC(=O)CCCn1c(-c2ccc(C)cc2)c(C)n2c3c(=O)n(C)c(=O)n(C)c3nc12 | 0.922%
COc1ccc(-c2cn3c(n2)sc2cc(C(=O)NC(C)C45CC6CC(CC(C6)C4)C5)ccc23)cc1 (configuration not stated) | 17.2%
COc1cc([N+](=O)[O-])ccc1NC(=O)c1nc2ccccc2n(C)c1=O | -3.26%
